Source: the RNAGym collection of RNA variant scans (doi:10.1073/pnas.2313332121)
Variants at the background level are over-represented here.

B1: TPR 5TU (parent)
chain: GGAUCUUCUCGAUCUAACAAAAAAGACAAAUCUGCCACAAAGCUUGAGAGCAUCUUCGGAUGCAGAGGCGGCAGCCUUCGGUGGCGCGAUAGCGCCAACGUUCUCAACUAUGACACGCAAAACGCGUGCUCCGUUGAAUGGAGUUUAUCAUG

Variants of: B1
Assay: polymerase ribozyme fitness, log enrichment relative to wild type (log ratio); higher = more active; in vitro selection for triplet polymerase activity
Method in brief: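 PCR was used to build mutant libraries for each subunit of a heterodimeric triplet polymerase ribozyme, which were then transcribed. A single in vitro selection round, in triplicate, used a frozen incubation at −7 °C and recovered extended constructs by gel excision, streptavidin beads and RT-PCR. Fitness is the logarithm of genotype enrichment relative to wild-type enrichment, averaged over replicates with inverse-variance weights. The logarithm is base 2, and after Illumina sequencing only genotypes with ≥10 input reads and ≥1 read per output were kept.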

Variant	polymerase ribozyme fitness (log ratio)
U102G G141C A142C U146A	≤ -4.2
C116G	0.655
C116U	0.103
C116A	1.34
A110G G136A	-2.94
C95U U102G C105U	-2.98
G112A A119U	≤ -4.2
G94U U148C	-2.92
A97U U134G	-2.5
C99U A119C C125G U134G	-3.27
C118G	-1.01
C118A	-0.751
C108G U145C	≤ -4.2
C105G A107U U148C	≤ -4.2
C108G U151A	≤ -4.2
C96U C118G U151G	≤ -4.2
C96G A142G U145G A147U	-2.85
C96U G126U A137C A138G	≤ -4.2
C96A U139C	-3.61
U102G G133A	≤ -4.2
C95U C123U	0.509
C103U U134A	-2.39
U104G U134G G143A	-3.69
C116G C118A G140A A142C	≤ -4.2

Variant	polymerase ribozyme fitness (log ratio)
C96U A122G	-0.14
A113U A120G	-1.73
C95U U151G	≤ -4.2
C96G A121U A138C	≤ -4.2
C96U U102G U144A A150U	≤ -4.2
C99A C114U U135G	-3.68
C99U G126A G143U	-3.55
C95U U146G	-1.04
C96A A106C	-0.591
C103G G141U	-3.36
C99A C131G	≤ -4.2
C96G A98U U144G	-0.0548
C95U C96U U111A G136U	≤ -4.2
G94U U102C	-2.06
A113G A147C	-2.73
C95U C116G U135A	-2.67
C96G A142U U146A	-1.97
C99U U144A	-1.02
C95G A98G	-1.57
G100A C103G C116U G128U U130G	≤ -4.2
C118G A142G	-1.54
A106C G141C A150U	≤ -4.2
C96G A122U	-1.49
C96G A97G G143U	-3.14

Variant	polymerase ribozyme fitness (log ratio)
C96U C132A	-1.63
C96A A115U A147C	-3.48
U102C C131U U134G	-4.13
C96G C131A	-2.35
C95U A150G	-2.25
C95G C96U A120U A122C U139G	-1.86
A107C C118U	≤ -4.2
C96U A97C C108G A120G U127G	≤ -4.2
G112U G141A U148G	≤ -4.2
A106G G117A	0.816
C96U C123A	-0.106
C96U C123U	-0.655
A98G G133C	-1.69
C108A G124U G140C	≤ -4.2
A98G A107G U145C	≤ -4.2
C95U A107G G124U	≤ -4.2
C116U C125G	1.23
A107G G141A	-2.72
A107G G141U	-3.07
C118U U145A	-0.179
C99G U146C C149G	≤ -4.2
C95U A142G	-1.66
C95U U130G	-2.55
G100A G124A	≤ -4.2

Variant	polymerase ribozyme fitness (log ratio)
C108A A121U	≤ -4.2
A113U U146C	-1.49
A98U G128C G133C U135A	≤ -4.2
U102A U139A	≤ -4.2
C103G A115C A137G C149G	≤ -4.2
A98U C105A A119G A121C	-0.491
G94U C125U G143U	-4.16
C105U U135A	0.0587
C96U A97G	-0.535
U102G A120U	-1.94
U101G A113U	-1.25
U102C C114G	-4.11
A97G G100A C103A	≤ -4.2
C105A U135C	-2.39
A107U U135C	-4.04
C99U C149U	-1.17
U102G U104C U148A A150U	≤ -4.2
C103G C105U A121G	≤ -4.2
C95U U139G U148A	-3.14
C96A A98U	-0.335
C96A C118U	-1.8
A97C A98U U111G	-3.78
C96A A113U G140A	≤ -4.2
C95A C96A U104C A142C	-4.07

Variant	polymerase ribozyme fitness (log ratio)
C118G U144A	-0.0459
U109C C114U	-3.87
U104G G126C	0.0565
C99U G117C	0.786
U101G G117A G133U	-4.1
U104G A120C	0.532
C96U G141A G143A	≤ -4.2
G100U C118A G141C	≤ -4.2
C105A C149G	≤ -4.2
A113G A138U	-3.79
U111C G117U	-4.09
G94U G141C	-1.45
U104C A106G	-0.701
C99U G128A	≤ -4.2
C99G A138C	≤ -4.2
U101C C132A	-2.05
C96U U102C C125U	-2.51
C103G A120U U146G	-1.37
A106C C116G	-0.324
C96U A115U	-2.64
C96U A115C	-2.68
U109G C116G	-0.501
U109G C116A	-2.26
G100A C114U A137U G140C	≤ -4.2

Variant	polymerase ribozyme fitness (log ratio)
C96U A142C	-1.15
C96U U104A A107C U148A	≤ -4.2
G100A G126A	-4.02
C105U A106C	0.388
C96A C118U U148C	-2.57
C105G A107G C131G	≤ -4.2
C96A U148A	-3.15
U101G A115G	-0.695
A98G A107U	-3.24
C116U U148A	-3.85
C116U U146A	-0.753
C95U A115G G124U A142C	≤ -4.2
G100C C125U U135G	≤ -4.2
C114U G140C A150C	≤ -4.2
U101G A150G	-0.649
C99G A115G U127G C131A	≤ -4.2
U111G G124A U145G	≤ -4.2
C99U A147G	-2
G100U U139C	≤ -4.2
A107G G143U	-3.81
C99A U134G	-2.57
C103G A106U A107U U139C U144G U145C	≤ -4.2
A97U A138C	≤ -4.2
C103G A110U C129U G141U	≤ -4.2

Variant	polymerase ribozyme fitness (log ratio)
C99G U104G C105U C118A	≤ -4.2
C95U U104G C116U C131A	≤ -4.2
C96U G100A U127G	≤ -4.2
C96A C105G C125A	-2.29
C99A G136A	-0.217
C116A A142C	-3.92
A97U C108U A121G C132A	≤ -4.2
C96U G143C U146C	-1.75
U102G U104C	≤ -4.2
U101G G136A	0.652
C99G C108A A110G	≤ -4.2
U101G G124A	0.852
U102C U134G G136U A138U	≤ -4.2
U104G C108A U148C	≤ -4.2
G94U G100U	-3.85
A110G U134G	-4.07
C116G G124C U148C	≤ -4.2
C96G A98U	-0.873
U104C C116G	0.144
G117A A142U	-4.13
A115U A119G A138G	≤ -4.2
C105A C129G	≤ -4.2
C96A G133U	-3.9
